Measured values published in patent US9115380B2, “Kits and methods for generating 5′ capped RNA” (priority 2006, dated 2015).
Several values for one entry are separate records, joined by “and”; a condition that tells them apart may be missing. Equal entries are not always repeated. Where two headings read alike, the source gives them in different places. For some assays here: The name of at least one read-out is uncertain. Some of these results come from one statement about several compounds together. Some ranges recur; such a range may be that of the whole group of compounds.

Assays:
[1] = target: vaccinia capping enzyme (guanine 7-methyltransferase activity) (Vaccinia virus, UniProt P04298); assay type: biochemical
[2] = system: HeLa cells; assay type: cell-based
[3] = target: vaccinia capping enzyme (Vaccinia virus, UniProt P04298); assay type: biochemical
[4] = HeLa cells, poly(A)-tailed Renilla luciferase RNA, cap 0 structure, GTP-capped cap 0 RNA = 100%
[5] = HeLa cells, poly(A)-tailed Renilla luciferase RNA, cap I structure, GTP-capped RNA = 100%
[6] = HeLa cells, poly(A)-tailed firefly luciferase RNA, cap I structure

SMILES: Nc1nc2c(ncn2[C@H]2C[C@H](O)[C@@H](COP(=O)(O)OP(=O)(O)OP(=O)(O)O)O2)c(=O)[nH]1 [2′-dGTP, 2′-deoxyguanosine-5′-triphosphate]
- 51-base primary RNA transcript converted into radioactive 52-base capped RNA [1]: 95-100%
- average relative translation efficiency [2, 4]: 64%
- average relative translation efficiency [2, 5]: 68%
- average relative translation efficiency [2, 6]: 61%

SMILES: CO[C@@H]1[C@H](O)[C@@H](COP(=O)(O)OP(=O)(O)OP(=O)(O)O)O[C@H]1n1cnc2c(=O)[nH]c(N)nc21 [2′-OMe-GTP, 2′-O-methylguanosine-5′-triphosphate]
- 51-base primary RNA transcript converted into 52-base capped RNA [3]: 50-75%
- percentage of the RNA capped [3]: 80-100%
- 51-base primary RNA transcript converted into radioactive 52-base capped RNA [1]: 95-100%
- average relative translation efficiency [2]: 86% and 104% and 90%

SMILES: COc1nc(N)nc2c1ncn2[C@@H]1O[C@H](COP(=O)(O)OP(=O)(O)OP(=O)(O)O)[C@@H](O)[C@H]1O [O^6-methyl-GTP, O^6-methylguanosine-5′-triphosphate]
- average relative translation efficiency [2, 4]: 114%
- average relative translation efficiency [2, 5]: 134%
- average relative translation efficiency [2, 6]: 146%

SMILES: [N-]=[N+]=N[C@@H]1[C@H](O)[C@@H](COP(=O)(O)OP(=O)(O)OP(=O)(O)O)O[C@H]1n1cnc2c(=O)[nH]c(N)nc21 [2′-azido-dGTP, 2′-azido-2′-deoxyguanosine-5′-triphosphate]
- 51-base primary RNA transcript converted into 52-base capped RNA [3]: 50-75%
- percentage of the RNA capped [3]: 80-100%
- 51-base primary RNA transcript converted into radioactive 52-base capped RNA [1]: 95-100%
- average relative translation efficiency [2, 4]: 66%
- average relative translation efficiency [2, 5]: 52%
- average relative translation efficiency [2, 6]: 64%

SMILES: CO[C@H]1[C@@H](O)[C@H](n2cnc3c(=O)[nH]c(N)nc32)O[C@@H]1COP(=O)(O)OP(=O)(O)OP(=O)(O)O [3′-OMe-GTP, 3′-O-methylguanosine-5′-triphosphate]
- 51-base primary RNA transcript converted into radioactive 52-base capped RNA [1]: 95-100%
- average relative translation efficiency [2, 4]: 47%
- average relative translation efficiency [2, 5]: 31%
- average relative translation efficiency [2, 6]: 65%

SMILES: Nc1nc2c(ncn2[C@@H]2O[C@H](COP(=O)(O)OP(=O)(O)OP(=O)(O)O)[C@@H](O)[C@H]2N)c(=O)[nH]1 [2′-amino-dGTP, 2′-amino-2′-deoxyguanosine-5′-triphosphate]
- 51-base primary RNA transcript converted into radioactive 52-base capped RNA [1]: 95-100%
- average relative translation efficiency [2, 4]: 172%
- average relative translation efficiency [2, 5]: 254%
- average relative translation efficiency [2, 6]: 43%

SMILES: Cn1c(N)nc2c(ncn2[C@@H]2O[C@H](COP(=O)(O)OP(=O)(O)OP(=O)(O)O)[C@@H](O)[C@H]2O)c1=O [N^1-methyl-GTP, N^1-methylguanosine-5′-triphosphate]
- average relative translation efficiency [2]: 3% and < 1%

SMILES: Nc1nc2c(ncn2[C@@H]2O[C@H](COP(=O)(O)OP(=O)(O)OP(=O)(O)O)C[C@H]2O)c(=O)[nH]1 [3′-dGTP, 3′-deoxyguanosine-5′-triphosphate]
- average relative translation efficiency [2, 4]: 45%
- average relative translation efficiency [2, 5]: 48%
- average relative translation efficiency [2, 6]: 61%

SMILES: Nc1nc2c(ncn2[C@@H]2O[C@H](COP(=O)(O)OP(=O)(O)OP(=O)(O)O)[C@@H](O)[C@H]2F)c(=O)[nH]1 [2′-F-dGTP, 2′-fluoro-2′-deoxyguanosine-5′-triphosphate]
- 51-base primary RNA transcript converted into 52-base capped RNA [3]: 50-75%
- percentage of the RNA capped [3]: 80-100%
- 51-base primary RNA transcript converted into radioactive 52-base capped RNA [1]: 95-100%
- average relative translation efficiency [2, 4]: 46%
- average relative translation efficiency [2, 5]: 54%
- average relative translation efficiency [2, 6]: 105%
